# Source: the supplement of paper PMC8183993
# Where a name gives a salt, the structure may show the parent alone. ± gives the standard deviation of the averaged measurements. In all, about 3,200 compounds were measured (“nuclei count (viability) relative to DMSO”: median about 99, lowest 2% from about 16 on). The list shows a part of the results.
# Tested on: U2OS
# Test: nuclei count (viability) relative to DMSO (% of DMSO); higher = more viable cells
# Details: 10 µM; 24 h
# Protocol: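 Primary image-based screen in U2OS cells: compounds at 10 uM for 24 h, then a 1 h o-propargyl-puromycin (OPP) pulse, click labelling, and high-throughput microscopy. Mean cytoplasmic OPP intensity and nuclei count were normalised to DMSO wells within each plate (DMSO = 100) and averaged over triplicate plates.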
row,Compound,nuclei count
1,O=c1cc[nH]c(=S)[nH]1 [2-Thiouracil],102
2,CC(C)CC(=O)N[C@H](C(=O)N[C@H](C(=O)N[C@@H](CC(C)C)[C@@H](O)CC(=O)N[C@@H](C)C(=O)N[C@@H](CC(C)C)[C@@H](O)CC(=O)O)C(C)C)C(C)C [Pepstatin A],101 ± 4.6
3,N[C@H](C(=O)O)c1cc(O)cc(O)c1,99.8
4,Cc1cccc(C#Cc2ccccc2)n1 [MPEP hydrochloride],105
5,c1ccc(C(NCc2cccnc2)(c2ccccc2)c2ccccc2)cc1,91.5
6,C[C@H](O)C(=O)Nc1c(I)c(C(=O)NC(CO)CO)c(I)c(C(=O)NC(CO)CO)c1I [Iopamidol],91.4
7,COC(=O)C1=C(C)NC(C)=C(C(=O)OCCSc2ccccc2)C1C (stereo unspecified),97.8
8,Nc1nc(NCCc2ccc(O)cc2)nc2nc(-c3ccco3)nn12,114
9,"O=C(/C=C/c1ccc(CN(CCO)CCc2c[nH]c3ccccc23)cc1)NO [LAQ824 (NVP-LAQ824, Dacinostat)]",26.9
10,CN1CCN(CCOc2cc(OC3CCOCC3)c3c(Nc4c(Cl)ccc5c4OCO5)ncnc3c2)CC1 [Saracatinib (AZD0530)],87.9
11,O=C(NCC(O)CO)c1c(I)c(C(=O)NCC(O)CO)c(I)c(N(CCO)C(=O)CO)c1I (stereo unspecified) [Ioversol],108
12,CO/N=C(\C(=O)N[C@@H]1C(=O)N2C(C(=O)O)=C(COC(N)=O)CS[C@H]12)c1ccco1 [Cefuroxime sodium salt],111
13,Nc1ccc(S(=O)(=O)Nc2ccnn2-c2ccccc2)cc1 [Sulfaphenazole],102
14,COc1cc(/C=C(\C#N)C(N)=O)cc(CSc2nc3ccccc3s2)c1O,101
15,CCOCC(O)COc1ccc(NC(=O)CC[S+](C)C)cc1 (stereo unspecified) [Suplatast tosylate],102
16,CC1Cc2ccccc2N1NC(=O)c1ccc(Cl)c(S(N)(=O)=O)c1 (stereo unspecified) [Indapamide],98.2
17,CO/N=C(\C(=O)N[C@@H]1C(=O)N2C(C(=O)O)=C(Cn3ccc(=N)n3CCO)CS[C@H]12)c1csc(N)n1 [Cefoselis sulfate],99.1
18,C=CC(=O)Nc1ccc2ncnc(Nc3cccc(Br)c3)c2c1,79.2 ± 4.8
19,CC(C)=CCC/C(C)=C/CC/C(C)=C/CSCC(=O)O [Farnesylthioacetic acid],97.9
20,CC#CCOC(=O)C1=CCCN(C)C1 [Arecaidine but-2-ynyl ester tosylate],101
21,C[C@H](CCC(=O)O)[C@H]1CC[C@H]2[C@@H]3CC[C@@H]4C[C@H](O)CC[C@]4(C)[C@H]3C[C@H](O)[C@]12C [Sodium Deoxycholic acid],112

row,Compound,nuclei count
1,C[C@H](CCC(=O)O)[C@H]1CC[C@H]2[C@@H]3CC[C@@H]4C[C@H](O)CC[C@]4(C)[C@H]3C[C@H](O)[C@]12C [Deoxycholic acid],99.6
2,COc1cc(C#N)ccc1S(=O)(=O)Nc1ccc2c(c1)cc(C)c(=O)n2C,103
3,O=C(O)C1=CCCNC1 [Guvacine hydrochloride],101
4,Cc1cc(CC(=O)O)n(C)c1C(=O)c1ccc(Cl)cc1 [Zomepirac sodium salt],99
5,CCCCCCCCCCCCCCCC(=O)O[C@@H]1[C@@H](O)[C@@H](O)[C@@H]([C@H](NC(=O)[C@@H]2C[C@@H](CCC)CN2C)[C@H](C)Cl)O[C@@H]1SC [Clindamycin palmitate HCl],90.7
6,CCN(CC)CCCC(C)Nc1ccnc2cc(Cl)ccc12 (stereo unspecified) [Chloroquine diphosphate],103
7,CCN(CC)CCCC(C)Nc1ccnc2cc(Cl)ccc12 (stereo unspecified) [Chloroquine],96.6
8,CS(=O)(=O)c1ccc([C@@H](O)[C@@H](CF)NC(=O)C(Cl)Cl)cc1 [Florfenicol],90.3
9,O=C(O)Cn1c(C(=O)Nc2nc(-c3ccccc3Cl)cs2)cc2ccccc21,102
10,CCNC(=O)[C@H]1O[C@@H](n2cnc3c(N)nc(NCCc4ccc(CCC(=O)O)cc4)nc32)[C@H](O)[C@@H]1O,99.1
11,O=C(COc1cccc2c(=O)[nH]ccc12)c1ccccc1,107
12,Nc1ccc(S(=O)(=O)NC(=O)c2ccccc2)cc1 [Sulfabenzamide],104
13,CC(C)c1nc(N(C)S(C)(=O)=O)nc(-c2ccc(F)cc2)c1/C=C/[C@@H](O)C[C@@H](O)CC(=O)O [Rosuvastatin calcium (Crestor)],107
14,C=C(CC)C(=O)c1ccc(OCC(=O)O)c(Cl)c1Cl [Ethacrynic acid],109
15,CCCC[P+](CCCC)(CCCC)Cc1ccc(NC(=O)C(Cc2ccc3ccccc3c2)NC(=NC2CCCCC2)NC2CCCCC2)cc1 (stereo unspecified),94.1
16,CCCCCCCCCCCCCCCC(=O)O[C@H](CC(=O)O)C[N+](C)(C)C (racemic) [(±)-Palmitoylcarnitine chloride],94.5
17,C1N2CN3CN1CN(C2)C3 [Methenamine],107
18,O=C(O)C1=C[C@@H](O)[C@@H](O)[C@H](O)C1 [Shikimic acid (Shikimate)],100
19,C[Se]CC[C@H](N)C(=O)O [Selenomethionine],94.8
20,O=C1NCCN1c1ncc([N+](=O)[O-])s1 [Niridazole],90.4
21,CCCCCN(C)CCC(O)(P(=O)(O)O)P(=O)(O)O [Ibandronate sodium],105.7 ± 1

row,Compound,nuclei count
1,CN=c1nc(-c2ccccc2)n(-c2ccccc2)s1,108
2,C[C@@H](O)[C@H]1C(=O)N2C(C(=O)O)=C(SCCNC=N)C[C@H]12 [Imipenem],100
3,CC[C@]12C=CCN3CC[C@@]4(c5cc([C@@]6(C(=O)OC)C[C@@H]7C[C@@H](C(C)(F)F)CN(Cc8c6[nH]c6ccccc86)C7)c(OC)cc5N(C)[C@H]4[C@@](O)(C(=O)OC)[C@@H]1OC(C)=O)[C@@H]32 [Vinflunine Tartrate],14.1
4,c1ccc2c(c1)CCCC2C1=NCCN1 (stereo unspecified) [Tetrahydrozoline hydrochloride],90.5
5,CC(C)(C)C(=O)OCOC(=O)[C@@H]1N2C(=O)[C@@H](/N=C/N3CCCCCC3)[C@H]2SC1(C)C [Pivmecillinam hydrochloride],104
6,O=C(c1ccc(F)cc1)C1CCN(CCCCc2ccccc2)CC1 [4-(4-Fluorobenzoyl)-1-(4-phenylbutyl)-piperidine oxalate],94.8
7,"OCC(O)CN1CCN(c2ccccc2)CC1 (racemic) [Dropropizine (R,S)]",108
8,CC(C)OC(=O)C(C(=O)OC(C)C)=C1SC=CS1 [Malotilate],91.2
9,CNc1ncnc2c1ncn2[C@@H]1O[C@H](CO)[C@@H](O)[C@H]1O [N6-methyladenosine],97.6
10,C[C@H](NCc1ccc(OCc2cccc(F)c2)cc1)C(N)=O,97.8
11,CCn1cc(C(=O)O)c(=O)c2cc(F)c(N3CCNCC3)nc21 [Enoxacin],110
12,CC(=O)OCC(=O)NCCCOc1cccc(CN2CCCCC2)c1 [Roxatidine Acetate HCl],108
13,OC[C@@H](O)[C@@H](O)[C@H](O)[C@H](O)CO [D-Mannitol (Osmitrol)],102
14,C=CCc1ccc(O)c(OC)c1 [Eugenol],108
15,CN1Cc2c(C(=O)OC(C)(C)C)ncn2-c2ccsc2C1=O,109
16,N#C/C(=C\c1ccc(O)c(O)c1)C(=O)Nc1ccccc1,83.4
17,CNc1cc2c(Nc3cccc(Br)c3)ncnc2cn1,46.6
18,OC[C@H]1OC(O)[C@H](O)[C@@H](O)[C@@H]1O (stereo partly drawn) [Dextrose (D-glucose)],103
19,O=C1NC(=O)C(c2ccccc2[N+](=O)[O-])=C1Nc1ccc(O)c(Cl)c1,96.9 ± 2.1
20,O=C1NC(=O)/C(=C/c2ccc3nccc(-c4ccncc4)c3c2)S1,98.2
21,CCCc1ncc(C[n+]2ccccc2C)c(N)n1 [Amprolium hydrochloride],104

row,Compound,nuclei count
1,NCC1CCC(C(=O)N[C@@H](Cc2ccccc2)C(=O)Nc2ccc(CC(=O)O)cc2)CC1 (stereo partly specified),101
2,CC(C(=O)O)c1cccc(Oc2ccccc2)c1 (stereo unspecified) [Fenoprofen calcium salt dihydrate],95.1
3,CC(C(=O)O)c1cccc(Oc2ccccc2)c1 (stereo unspecified) [Fenoprofen calcium hydrate],98.9
4,Oc1ccc(C2CNCCc3c2cc(O)c(O)c3Cl)cc1 (stereo unspecified) [Fenoldopam hydrochloride],104
5,C[C@@H]1CN(CCCn2c3ccccc3c3ccccc32)C[C@H](C)N1 [Rimcazole dihydrochloride],80
6,CC(C)(C)c1ccc(/C=C/C(=O)Nc2ccc3c(c2)OCCO3)cc1,96.6
7,O=C(CCCCCCC(=O)Nc1cccnc1)NO [Pyroxamide],54.1
8,CCc1ccc(CCOc2ccc(CC3SC(=O)NC3=O)cc2)nc1 (stereo unspecified) [Pioglitazone],100.7 ± 0.79
9,Cc1ccc(S(=O)(=O)C=CC#N)cc1,18.5
10,Cc1ccc(N(CC2=NCCN2)c2cccc(O)c2)cc1 [Phentolamine hydrochloride],106
11,Cc1ccc(N(CC2=NCCN2)c2cccc(O)c2)cc1 [Phentolamine HCl],99.6
12,CC(Oc1ccc(O)cc1)(P(=O)(O)O)P(=O)(O)O,105 ± 0.12
13,CCCSc1ccc2[nH]c(NC(=O)OC)nc2c1 [Albendazole (Albenza)],30.8
14,CCCSc1ccc2[nH]c(NC(=O)OC)nc2c1 [Albendazole],30.6
15,Cc1c(Cl)cccc1Nc1ccccc1C(=O)O [Tolfenamic acid],111
16,CN(C)CCC1(c2ccc(Cl)cc2)Cc2ccccc2C(=O)O1 (racemic) [(±)-AC 7954 hydrochloride],105
17,CO[C@H]1/C=C/O[C@@]2(C)Oc3c(C)c(O)c4c(O)c(c(/C=N/N5CCN(C)CC5)c(O)c4c3C2=O)NC(=O)/C(C)=C\C=C\[C@H](C)[C@H](O)[C@@H](C)[C@@H](O)[C@@H](C)[C@H](OC(C)=O)[C@@H]1C [Rifampicin],95.2 ± 11
18,"CO[C@H]1/C=C/O[C@@]2(C)Oc3c(C)c(O)c4c(O)c(c(/C=N/N5CCN(C)CC5)c(O)c4c3C2=O)NC(=O)/C(C)=C\C=C\[C@H](C)[C@H](O)[C@@H](C)[C@@H](O)[C@@H](C)[C@H](OC(C)=O)[C@@H]1C [Rifampin (Rifadin, Rimactane)]",105
